Measured values reported in PMC4336329 (PLoS ONE, 2015).
The campaign covered roughly 310,000 compounds. About 2,200 (0.71%) showed an effect of 50% or more. The effect is printed as a negative number. Some of the results follow.

biological target: human ether-à-go-go-related gene (hERG) potassium channel (human, UniProt Q12809); assay: primary screen, population patch clamp on CHO cells stably expressing hERG
Sequence (Q12809 whole entry, looked up): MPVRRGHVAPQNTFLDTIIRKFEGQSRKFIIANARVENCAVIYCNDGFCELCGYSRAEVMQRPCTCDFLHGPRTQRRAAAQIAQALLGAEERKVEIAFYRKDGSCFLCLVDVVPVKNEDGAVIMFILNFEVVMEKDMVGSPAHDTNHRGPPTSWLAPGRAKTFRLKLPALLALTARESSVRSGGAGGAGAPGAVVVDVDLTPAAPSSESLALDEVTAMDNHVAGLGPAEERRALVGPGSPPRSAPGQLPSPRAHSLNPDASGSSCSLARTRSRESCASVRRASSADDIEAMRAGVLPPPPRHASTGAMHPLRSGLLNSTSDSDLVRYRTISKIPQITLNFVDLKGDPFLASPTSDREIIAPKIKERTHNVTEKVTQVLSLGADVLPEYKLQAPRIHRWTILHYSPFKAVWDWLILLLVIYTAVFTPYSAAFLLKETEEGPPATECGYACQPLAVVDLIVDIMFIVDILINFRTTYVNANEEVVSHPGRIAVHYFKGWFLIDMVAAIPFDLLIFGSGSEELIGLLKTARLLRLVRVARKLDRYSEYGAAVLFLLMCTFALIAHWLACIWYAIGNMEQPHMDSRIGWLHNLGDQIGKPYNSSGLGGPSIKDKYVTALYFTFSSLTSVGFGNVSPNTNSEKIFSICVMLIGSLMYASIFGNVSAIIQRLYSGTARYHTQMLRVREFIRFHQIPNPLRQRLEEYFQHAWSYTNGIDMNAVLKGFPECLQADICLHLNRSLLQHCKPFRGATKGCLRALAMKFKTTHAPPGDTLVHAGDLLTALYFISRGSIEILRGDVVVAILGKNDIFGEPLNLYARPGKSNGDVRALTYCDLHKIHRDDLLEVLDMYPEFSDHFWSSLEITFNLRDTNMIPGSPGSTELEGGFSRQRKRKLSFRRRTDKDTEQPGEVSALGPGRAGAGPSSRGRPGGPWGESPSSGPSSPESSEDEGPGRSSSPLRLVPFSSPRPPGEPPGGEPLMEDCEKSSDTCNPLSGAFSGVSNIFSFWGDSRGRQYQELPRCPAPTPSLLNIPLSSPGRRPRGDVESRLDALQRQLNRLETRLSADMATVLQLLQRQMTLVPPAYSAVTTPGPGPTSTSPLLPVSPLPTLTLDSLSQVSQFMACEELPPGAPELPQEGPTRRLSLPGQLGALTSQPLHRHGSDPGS

Row | SMILES | hERG current change (%, negative = inhibition) at 1uM
1 | COC(=O)c1ccc(NC(=O)CSc2nnc(CNc3ccc(OC)cc3)n2C)cc1 | 17.6%
2 | C[C@H](CCCC/C=C/C(=O)O)O[C@@H]1O[C@@H](C)[C@H](O)C[C@H]1O | 5.13%
3 | Cc1ccc(/C=C/C(=O)O)cc1S(=O)(=O)NC1CCS(=O)(=O)C1 (stereo not drawn) | 16.5%
4 | CCN(CC)Cc1c(C(=O)OC)nnn1-c1nonc1N | 14.7%
5 | COc1ccc(NC(=O)c2sc3nc(C)nc(N4CCN(c5ccccn5)CC4)c3c2C)cc1Cl | 8.92%
6 | O=c1cc(CSc2nnc(COc3ccccc3)o2)c2ccccc2[nH]1 | 10.3%
7 | O=S(=O)(c1cccc(-c2nnc(-c3ccc(Br)cc3)o2)c1)N1CCCCCC1 | -12.8%
8 | Cc1ccc(S(=O)(=O)NC(CC(=O)O)c2ccccc2)c(C)c1 (stereo not drawn) | 11%
9 | CCSc1nnc2ccc(-c3ccc(C)cc3)nn12 | 14%
10 | Cc1ccc(CNC(=O)CCS(=O)(=O)c2ccc3c(c2)NC(=O)CO3)cc1 | 10.9%
11 | C/C(=N\NC(=O)C1CC1(c1ccccc1)c1ccccc1)c1cccc([N+](=O)[O-])c1 (stereo not drawn) | -12.6%
12 | Cc1c(Cl)cccc1NC(=O)Cn1nc(C)n2cccc2c1=O | 10.4%
13 | O=C(CN1C(=O)COc2ccc(S(=O)(=O)N3CCOCC3)cc21)NCc1ccco1 | 8.81%
14 | C=CCc1cccc(CNc2nc3ccccc3n2CCN2CCOCC2)c1O | 2.18%
15 | Cn1c(Cl)cnc1C(O)(c1ccccc1)c1ccccc1 | 15%
16 | CCCCOC(=O)Cn1c(=N)n(CCN(CC)CC)c2ccccc21 | -18.6%
17 | O=C(O)CNC(=O)c1ccc(N2CCOCC2)cc1[N+](=O)[O-] | 8.02%
18 | O=C(Nc1ccc2nc3ccccc3nc2c1)c1ccccc1 | 12.9%
19 | COc1ccc(S(=O)(=O)n2nc(-n3c(C)ccc3C)c3c(F)cccc32)cc1OC | 13.4%
20 | CCc1nc(Nc2ccc(NC(C)=O)cc2)c2oc3ccccc3c2n1.Cl | 19.7%
21 | CC(NC(N)=O)C(=O)NCC(=O)OCc1ccccc1 (stereo not drawn) | 9.31%
22 | CCOC(=O)c1cnn(-c2ccccn2)c1N | -6.09%

Row | SMILES | hERG current change (%, negative = inhibition) at 1uM
23 | CNS(=O)(=O)c1cccc(C(=O)OCc2cc(C(C)=O)ccc2OC)c1 | 10.4%
24 | CC(=O)[C@@]1(O)CC[C@H]2[C@@H]3C[C@H](C)C4=CC(=O)CC[C@]4(C)[C@H]3CC[C@@]21C | 9.7%
25 | O=C(Cn1ncc2c3ccccc3n(Cc3ccccc3F)c2c1=O)NCCN1CCOCC1 | -21.4%
26 | COCCn1c(SCC(N)=O)nc2c(c1=O)SC(C)C2 (stereo not drawn) | 7.72%
27 | N/C(=N\OC(=O)/C=C/c1ccccc1Cl)c1ccccn1 | 5.28%
28 | COC(=O)Cn1cc(C(=O)c2ccco2)c2ccccc21 | 4.43%
29 | N#Cc1ccc(-c2ccc(OCC(=O)NCC(=O)Nc3ccc(F)c(F)c3F)cc2)cc1 | -2.68%
30 | O=C(c1ccccc1)N1CCN(c2ccc([N+](=O)[O-])c(NCC3CCCO3)c2)CC1 (stereo not drawn) | -7.95%
31 | O=C(NCC1CCCO1)c1cc2ccccc2cc1O (stereo not drawn) | 6.99%
32 | N#Cc1ccc(CN2CCN(C(=O)CNS(=O)(=O)c3ccc4c(c3)OCCCO4)CC2)cc1 | 0.354%
33 | COc1ccc(NC(=O)c2cccc(S(=O)(=O)N3CCCCCC3)c2)cc1 | 5.87%
34 | Nc1ccc2nn(-c3cccc4ccccc34)nc2c1 | 4.08%
35 | Cc1cc2nnc(SCC(=O)NCC(c3ccccc3)N(C)C)n2c2ccccc12 (stereo not drawn) | 8.65%
36 | COc1cccc(CNC(=O)c2ccc(CS(=O)Cc3ccc(C)cc3)o2)c1 (stereo not drawn) | 9.53%
37 | CC(=O)Nc1sc(N/N=C\c2ccccc2F)nc1-c1cccs1 | 5.96%
38 | CCOC(=O)c1cc2c(=O)n3ccccc3nc2n(C(C)C)c1=NC(=O)c1ccncc1 | -35.1%
39 | COc1ccc(NC(=O)CN(C)CC(=O)Nc2cccc(C(C)=O)c2)cc1 | 8.92%
40 | Cc1ccc(S(=O)(=O)Nc2cccc(-c3ccc(N4CCCCCC4)nn3)c2)cc1 | 15%
41 | Cc1ccc(C)c2c1cc(C)c1nnc(SCC(=O)NCc3ccc4c(c3)OCO4)n12 | 1.46%
42 | CCCCn1cnc2c([nH]c3ccccc32)c1=O | 16%
43 | CCCN(CC1CCCO1)C(=O)CCc1nnc(CCc2ccc(OC)cc2)o1 (stereo not drawn) | 13.9%
44 | Cc1cccn2c(N)c(-c3ccccc3)nc12 | 3.9%

Row | SMILES | hERG current change (%, negative = inhibition) at 1uM
45 | O=C(NC1CCCCC1)NC1CC2CCCC(C1)N2C1CCCC1 (stereo not drawn) | 7.05%
46 | O=C(N/N=C/c1cc(Br)cc(Br)c1O)c1cccc(S(=O)(=O)N2CCOCC2)c1 | 29.1%
47 | COCCOC(=O)c1cc(C(=O)c2cc(Cl)ccc2O)coc1=N | 23%
48 | O=C(NCCS(=O)(=O)N1CCN(c2ccccc2F)CC1)c1cc(=O)c2ccccc2o1 | 7.17%
49 | Cc1ccc(S(=O)(=O)N2CCC(=O)N(C(CO)Cc3ccccc3)CC2)cc1 (stereo not drawn) | 13.1%
50 | Cc1ccc(OCC(=O)O/N=C(\N)Cc2ccc([N+](=O)[O-])cc2)cc1C | 6.07%
51 | CCCS(=O)(=O)N1CCCC(C(=O)N2CCN(C(=O)OCC)CC2)C1 (stereo not drawn) | 10.6%
52 | CSCCC(NC(=O)c1ccccc1Cl)C(=O)N1CC(C)OC(C)C1 (stereo not drawn) | 12.3%
53 | CC(C)(C)C(=O)Cn1nnc(-c2ccc(C(F)(F)F)cc2)n1 | 13.1%
54 | C=CCNC(=S)Nc1nc2c(cc1C(=O)OCC)COC(C)(C)C2 | 11.7%
55 | COc1ccc(-c2[nH]n(-c3ccc([N+](=O)[O-])cc3)c(=O)c2C=NCc2ccncc2)cc1 | 4.62%
56 | COc1ccccc1C1=NOC(C(=O)N2CCN(C(=O)c3ccco3)CC2)C1 (stereo not drawn) | 8.33%
57 | O=c1c(-c2ccc(Cl)cc2)c[nH]n1-c1ccccc1 | 18.4%
58 | COc1ccc(OCC(O)CN2C(=O)c3ccccc3S2(=O)=O)cc1 (stereo not drawn) | 1.37%
59 | COc1cc(C)c(S(=O)(=O)N2CCOCC2)c(C)c1C | 12.6%
60 | Cn1nccc1NC(=O)Nc1ccc(OC(F)(F)F)cc1 | 9.37%
61 | CN(C)CCNC(=S)Nc1ccc(F)c(F)c1F | 8.01%
62 | Cc1ccc(C2CC2C(=O)NNC(=S)Nc2cccc(C)c2)cc1 (stereo not drawn) | -0.868%
63 | COc1ccccc1NC(=O)CSC1=NC(=O)C(Cc2ccccc2)C(=O)N1 (stereo not drawn) | 20.7%
64 | CCC(C)n1c(SCC(=O)Nc2cc(C)on2)nc2ccccc2c1=O (stereo not drawn) | 17.5%
65 | CC1=C(C#N)C(c2ccccc2O)C(C#N)=C(C)N1 | 11.1%
66 | CCOc1ncccc1C(=O)OCC(=O)c1ccccc1Br | 14.9%

Row | SMILES | hERG current change (%, negative = inhibition) at 1uM
67 | CCCCN(C)CCCNC(=O)CS(=O)Cc1nc(-c2ccc(OC)c(OC)c2)oc1C (stereo not drawn) | 8.97%
68 | COc1cc(/C=C(/NC(=O)c2ccccc2)C(=O)Nc2ccccc2)c([N+](=O)[O-])cc1OC | 6.01%
69 | COc1ccc(Br)cc1Cn1nnc(C(=O)Nc2ccc3c(c2)OCCO3)c1N | 11.4%
70 | O=c1c2ccccc2ncn1Cc1ccc(Cl)c(Cl)c1 | 12.6%
71 | CCN(CC)S(=O)(=O)c1ccc(C(=O)N(c2ccccc2)C2C=CS(=O)(=O)C2)cc1 (stereo not drawn) | -4.18%
72 | CCOC(=O)c1[nH]c2ccc(OCC)cc2c1NC(=O)CN1CCCC(C)C1 (stereo not drawn) | -2.44%
73 | CN(C)C(=S)Nc1ccc(N2CCOCC2)cc1 | 16.9%
74 | O=C(NCCC1CCCCN1S(=O)(=O)c1ccccc1)C(=O)NC1CC1 (stereo not drawn) | 8.5%
75 | C[C@H](NC(=O)C1(c2ccccc2)CCN(C(=O)[C@H]2CSCN2C(=O)OC(C)(C)C)CC1)C(=O)O | 16%
76 | COc1cccc(N2C(=O)C3ON(c4ccccc4)C(c4cccs4)C3C2=O)c1 (stereo not drawn) | 9.48%
77 | CCOC(=O)/C(C#N)=C/N=c1ccc(C)cn1C | 6.27%
78 | O=C(NC1Cc2ccccc2C1)c1cc(COc2ccc(F)cc2Cl)on1 | 15.7%
79 | COc1ccc(CNc2ncc(-c3ccccc3)n2C)c(OC)c1OC.O=C(O)C(=O)O | -1.37%
80 | Cc1cccc(N2C(=O)N(c3ccccc3C)C3CS(=O)(=O)CC32)c1 (stereo not drawn) | 16.2%
81 | COc1ccc(-n2ccn(CC(=O)Nc3ccc(OC)cc3OC)c(=O)c2=O)cc1 | 18%
82 | Cc1c(CNC(=O)c2cnn3c2NC(c2ccc(Br)cc2)CC3C(F)(F)F)cnn1C (stereo not drawn) | 3.82%
83 | COc1ccccc1NC(=S)N(Cc1ccc(Cl)cc1)CC1CCC(C(=O)O)CC1 (stereo not drawn) | 8.65%
84 | Nn1c(SCc2ccc(F)cc2)nnc1-c1ccccn1 | 11%
85 | COC(=O)c1sccc1NC(=O)CSCCc1ccccn1 | 2.84%
86 | Cc1[nH][nH]c(=O)c1C(c1ccc([N+](=O)[O-])cc1)c1c(C)[nH][nH]c1=O | 16.2%
87 | COc1cc(C2Nc3cc(Cl)c(S(N)(=O)=O)cc3S(=O)(=O)N2)cc(OC)c1OC (stereo not drawn) | 2.85%
